Reference: publication PMC12136788
This is one part of the list.

T1: UNK ZnF1-6 (called full-length) (human, UniProt Q9C0B0 30-357)
T1 sequence: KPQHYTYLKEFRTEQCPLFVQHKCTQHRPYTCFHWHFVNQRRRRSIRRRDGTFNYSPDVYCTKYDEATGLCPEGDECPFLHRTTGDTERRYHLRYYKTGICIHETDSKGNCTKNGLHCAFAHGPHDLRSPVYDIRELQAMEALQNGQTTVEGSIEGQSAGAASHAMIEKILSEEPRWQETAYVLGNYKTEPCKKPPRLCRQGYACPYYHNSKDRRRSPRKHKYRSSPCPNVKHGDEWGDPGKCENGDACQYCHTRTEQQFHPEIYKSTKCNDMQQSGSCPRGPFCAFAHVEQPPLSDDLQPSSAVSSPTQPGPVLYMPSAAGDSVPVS

B1: chr1:100520103:100520216:+|3pUTR|ENSG00000079335|unk|FALSE|unique (ssRNA)
RNA: GGGAGUUCUACAGUCCGACGAUCUUACACAUGUGCCUACAUAGACACACCAAGAAGUGGAUGUAUAUAAUAUAGAAAGUAUAUAGCAAAGUAAUUUUACUCUGAUAAUAAAAAUUGUUUGACAUGUAUUUUGUUAUGAAUAGUCAACAGAGGAUUGAGCAUCA
B2: chr4:48498090:48498191:-|3pUTR|ENSG00000075539|msi1|FALSE|bound_elsewhere (ssRNA)
RNA: GGGAGUUCUACAGUCCGACGAUCAGGAAGCCUGAAGACUGACUACCAAAACAUGCAAUAUACUUAUUCACUGUCUAAGUCUGUAGUAUAACAUGAACUGGAGUCUCUAUCCUUUUCUAAAAUCGCAUUUUGUAAGAAAAGAAACAACAGAGGAUUGAGCAUCA
B3: chr14:101901747:101901860:+|CDS|ENSG00000078304|unk|FALSE|unique (ssRNA)
RNA: GGGAGUUCUACAGUCCGACGAUCCUGGCCAAAGACUCACAGUCCAAAAGAAGUAAUGUUCUUAAACGAAUUAGAAGAGAUUUUAGAUGUCAUUGAACCAUCAGAAUUUGUGAAGAUCAUGGAACCCCUCUUCCGGCAGUUGGCCAACAGAGGAUUGAGCAUCA
B4: ENSG00000124766:be:win_2851|3pUTR|ENSG00000124766|bound_else_gene|NA|bound_elsewhere_windowed (ssRNA)
RNA: GGGAGUUCUACAGUCCGACGAUCUAAUCAGAUGCCAUUUUAUAUGUGGACGUAUUUAUACUGGCCAAACAUAUUUUUUCUUUUGUCCCUUUUUUUCUUUCCUUUCUUUUUACUUCCUUUAUUUCUUUAUUCCUUCCUUUUCCUCAACAGAGGAUUGAGCAUCA
B5: chr11:101890673:101891278:-|three_prime_utr|ENSG00000187151|control|control|control (ssRNA)
RNA: GGGAGUUCUACAGUCCGACGAUCGUAAUGCAAGUUCUACAAUGAUAAUAUAUUAAAGAUUUUUAAAAGUUUAUCUUUUCACUUAGUGUUUCAAACAUAUUAGGCAAAAUUUAACUGUAGAUGGCAUUUAGAUGUUAUGAGUUUCAACAGAGGAUUGAGCAUCA
B6: chr1:93346344:93346492:+|5pUTR|ENSG00000117505|unk|FALSE|unique (ssRNA)
RNA: GGGAGUUCUACAGUCCGACGAUCGCCGCUCAAAUUUCCGGACCACCGCGCUUUCCCCUCCUCAGCCUGGGCUGUGCUCUCUCUAGAAUCCUCGGGCCCCCACUUUCUUCCCAAACUCAUCCUAAAUCUCUCACACACGCGAGUCAACAGAGGAUUGAGCAUCA
B7: chr13:45969211:45969312:-|CDS|ENSG00000123200|unk|FALSE|unique (ssRNA)
RNA: GGGAGUUCUACAGUCCGACGAUCGUCCCUGACCGUACAGAGGUGACAGAAGCAGAGCAUACUGCCACCGCCACGACUCCUGGUAGUACCCCUUCUCCUCUAUCUUCUCUUCUUCCUCCUCCACCGCCUGUGGCUACUGCCACUCAACAGAGGAUUGAGCAUCA
B8: chr5:72990507:72990614:+|CDS|ENSG00000157107|unk|FALSE|unique (ssRNA)
RNA: GGGAGUUCUACAGUCCGACGAUCGUAUGGGAUGUAUUCAAAACAUCUACAGAGAAAUUAGCAAAUUGUCACUUGGAUCUUGUUAGAAAAUUACAAGAAUUAAUAAAGGAAGUUCAGAAGUAUGGAGAAGAACAAGUAAAGUCUCAACAGAGGAUUGAGCAUCA
B9: chr3:122573770:122573871:+|3pUTR|ENSG00000163840|msi1|total|mutant (ssRNA)
RNA: GGGAGUUCUACAGUCCGACGAUCUAUUGGGUGCACUUGCCCUGCCACAGUAAUGCUAUAUAUUUCUGAGCAUUGUUUUUCUCCCGAUAAUUUUAUAUUUUUGAGUAUACCCCACUUCCAAGUGUUUUUUGUUUUGUUUUGCUUCAACAGAGGAUUGAGCAUCA
B10: chr3:23980279:23980388:+|3pUTR|ENSG00000174738|unk|total|mutant (ssRNA)
RNA: GGGAGUUCUACAGUCCGACGAUCUUUUUCUUUUCCAAUAUAAAGUUUGCUGAAUGUACAAGAAGAGUUUAUCACUCCGGAUACCGAAUUUUUUCCGGGGUUGGGGGAGGGGAUCUGUCCGGAAACUGUUACCUAUAAACAAAGCAACAGAGGAUUGAGCAUCA
B11: chr13:32776882:32776983:+|3pUTR|ENSG00000083642|unk|total|mutant (ssRNA)
RNA: GGGAGUUCUACAGUCCGACGAUCAAAGUGUUUUGAAUUGUGUCUUAAUCUCUCCAUAUUCAACUAUUCUUCAUUUACAACAACCGUGACACCAGUAAUUAUGAGAGGCUGUCAUAUAUCAAAGCAGCUCAGGUGGGAUCAACACAACAGAGGAUUGAGCAUCA
B12: chr11:43405833:43405939:+|CDS|ENSG00000052841|unk|total|mutant (ssRNA)
RNA: GGGAGUUCUACAGUCCGACGAUCGGCCCAAACCCCUGACUGUUCCAUAACUGACUUCAGAAAAAGCCACACUCUGUCCUACUCCGUCAAAGAAUCCGAGGUUCGCAUGGAUCUGAAAGCCAAAAUGCCAGAUGACCAUGCACGCAACAGAGGAUUGAGCAUCA
B13: chr2:216675988:216676089:-|3pUTR|ENSG00000115461|msi1|total|mutant (ssRNA)
RNA: GGGAGUUCUACAGUCCGACGAUCACUAAAAUGCAUUCCAUUCCUCUGAAAGCAAAACAAAUUCAUAAUUGAGUGAUAUUAAACCGAGAGGUUUUCGGAAGCAGAUCUGUGAAUAUGAAAUACAUGUGCAUAUUUCAUUCCCCACAACAGAGGAUUGAGCAUCA
B14: chr7:116918052:116918157:+|3pUTR|ENSG00000198898|unk|FALSE|unique (ssRNA)
RNA: GGGAGUUCUACAGUCCGACGAUCUUUUCAUUUUGUUUGUUCUAAGAGGAUUGAAAAUCAGUUUAGUUUAAAUGUCUUUCUGUUAGGCCUUUCUUUCUUACAAUGAAGAGAUGAUUCUUCUAGUUUAUGGUUAAAAGUUUUUGACAACAGAGGAUUGAGCAUCA

Target: T1, UNK ZnF1-6 (called full-length)
Test: nsRBNS (natural sequence RNA bind-n-seq); RBNS binding buffer (assumed for nsRBNS): 25 mM Tris pH 7.5, 150 mM KCl, 3 mM MgCl2, 0.01% Triton X-100, 500 ug/ml BSA, 20 U/ml SUPERase-In, 4 C; UNK is unkempt and MSI1 is Musashi-1; names of the RNAs are library labels; protein concentration not given here; high values mean tight binding

Binder | binding signal [enrichment R]
B1 | 1.45
B2 | 0.311
B3 | 0.772
B4 | 8
B5 | 5.03
B6 | 1.62
B7 | 1.84
B8 | 3.86
B9 | 3.14
B10 | 0.86
B11 | 0.995
B12 | 0.444
B13 | 0.351
B14 | 3
